Data reported in PMC2850574 (Biochemistry, 2010).

Molecular target: the molecule itself

B1: wild-type SecA (Escherichia coli SecA ATPase) (natural protein)
chain: not shown
Work on B1 yielded a Kd of under 1 nM.
